# Experimental data reported in the supplement of paper PMC8728848.
# The other results are listed elsewhere or left out.
# B1: GH98CBM51-1 (Streptococcus pneumoniae) (protein)
# chain: MTYLSDMDWSSATHGDIDKTKTVQKDAPFTTGNKGEHTKISLLTSDDKVKYFDKGIGTVADSPSVISYDISGQGFEKFETYIGIDQSANSSRSDHAVVDRIEIEIDGKVVYSSSVTNPEGFRYNTQAQFISVTIPQNAKKISLKSFAGEHTWGDEVVFADAKLIKTVST
# Assays:
# Test in all cases: glycan array binding signal (z-score within array); higher = stronger binding
# Settings in all cases: glycan notation: IUPAC condensed, linker removed
# [1] = target: Fuc(a1-3)[Gal3S(b1-4)]GlcNAc
# How it was run: (§1)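 Arrays were curated from the Consortium for Functional Glycomics database, 3228 in total, and kept only where the protein sequence was available. Binding is expressed as a within-array Z-score. This score was averaged across arrays of the same protein sequence at different concentrations or buffers and across linkers, and negative values can be read as non-binding.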
# [2] = target: Fuc(a1-3)[Gal3S(b1-4)]GlcNAc6S
# How it was run: as §1
# [3] = target: Fuc(a1-3)[GalNAc(b1-4)]GlcNAc
# How it was run: as §1
# [4] = target: Fuc(a1-4)GlcNAc
# How it was run: as §1
# [5] = target: Fuc(b1-3)GlcNAc
# How it was run: as §1
# [6] = target: Gal(a1-2)Gal
# How it was run: as §1
# [7] = target: Gal(a1-3)Gal
# How it was run: as §1
# [8] = target: Gal(a1-3)Gal(b1-3)GlcNAc
# How it was run: as §1
# [9] = target: Gal(a1-3)Gal(b1-3)GlcNAc(b1-2)Man(a1-3)[Gal(a1-3)Gal(b1-3)GlcNAc(b1-2)Man(a1-6)]Man(b1-4)GlcNAc(b1-4)GlcNAc
# How it was run: as §1
# [10] = target: Gal(a1-3)Gal(b1-3)[Fuc(a1-4)]GlcNAc(b1-2)Man(a1-3)[Gal(a1-3)Gal(b1-3)[Fuc(a1-4)]GlcNAc(b1-2)Man(a1-6)]Man(b1-4)GlcNAc(b1-4)GlcNAc
# How it was run: as §1
# [11] = target: Gal(a1-3)Gal(b1-4)Glc
# How it was run: as §1
# [12] = target: Gal(a1-3)Gal(b1-4)GlcNAc
# How it was run: as §1
# [13] = target: Gal(a1-3)Gal(b1-4)GlcNAc(b1-3)GalNAc
# How it was run: as §1
# [14] = target: Gal(a1-3)Gal(b1-4)[Fuc(a1-3)]GlcNAc
# How it was run: as §1
# [15] = target: Gal(a1-3)Gal(b1-4)[Fuc(a1-3)]GlcNAc(b1-2)Man(a1-3)[Gal(a1-3)Gal(b1-4)[Fuc(a1-3)]GlcNAc(b1-2)Man(a1-6)]Man(b1-4)GlcNAc(b1-4)GlcNAc
# How it was run: as §1
# [16] = target: Gal(a1-3)GalNAc
# How it was run: as §1
# [17] = target: Gal(a1-3)[Gal(a1-4)]Gal(b1-4)GlcNAc
# How it was run: as §1
# [18] = target: Gal(a1-4)Gal(b1-3)GlcNAc(b1-2)Man(a1-3)[Gal(a1-4)Gal(b1-3)GlcNAc(b1-2)Man(a1-6)]Man(b1-4)GlcNAc(b1-4)GlcNAc
# How it was run: as §1
# [19] = target: Gal(a1-4)Gal(b1-4)Glc
# How it was run: as §1
# [20] = target: Gal(a1-4)Gal(b1-4)GlcNAc
# How it was run: as §1
# [21] = target: Gal(a1-4)Gal(b1-4)GlcNAc(b1-2)Man(a1-3)[Gal(a1-4)Gal(b1-4)GlcNAc(b1-2)Man(a1-6)]Man(b1-4)GlcNAc(b1-4)GlcNAc
# How it was run: as §1
# [22] = target: Gal(a1-4)Gal(b1-4)GlcNAc(b1-3)Gal(b1-4)Glc
# How it was run: as §1
# [23] = target: Gal(a1-4)GlcNAc
# How it was run: as §1
# [24] = target: Gal(a1-6)Glc
# How it was run: as §1
# [25] = target: Gal(b1-2)Gal
# How it was run: as §1
# [26] = target: Gal(b1-3)Gal
# How it was run: as §1
# [27] = target: Gal(b1-3)Gal(b1-4)GlcNAc
# How it was run: as §1
# [28] = target: Gal(b1-3)Gal(b1-4)GlcNAc(b1-2)Man(a1-3)[Gal(b1-3)Gal(b1-4)GlcNAc(b1-2)Man(a1-6)]Man(b1-4)GlcNAc(b1-4)GlcNAc
# How it was run: as §1
# [29] = target: Gal(b1-3)GalNAc
# How it was run: as §1
# [30] = target: Gal(b1-3)GalNAc(a1-3)[Fuc(a1-2)]Gal(b1-4)Glc
# How it was run: as §1
binder,measurement,setting,value
B1,glycan array binding signal (z-score),[1],-0.186
same,glycan array binding signal (z-score),[2],-0.182
same,glycan array binding signal (z-score),[3],-0.19
same,glycan array binding signal (z-score),[4],-0.192
same,glycan array binding signal (z-score),[5],-0.193
same,glycan array binding signal (z-score),[6],-0.183
same,glycan array binding signal (z-score),[7],-0.188
same,glycan array binding signal (z-score),[8],-0.187
same,glycan array binding signal (z-score),[9],-0.171
same,glycan array binding signal (z-score),[10],-0.179
same,glycan array binding signal (z-score),[11],-0.189
same,glycan array binding signal (z-score),[12],-0.194
same,glycan array binding signal (z-score),[13],-0.191
same,glycan array binding signal (z-score),[14],-0.186
same,glycan array binding signal (z-score),[15],-0.172
same,glycan array binding signal (z-score),[16],-0.188
same,glycan array binding signal (z-score),[17],-0.192
same,glycan array binding signal (z-score),[18],-0.181
same,glycan array binding signal (z-score),[19],-0.186
same,glycan array binding signal (z-score),[20],-0.172
same,glycan array binding signal (z-score),[21],-0.182
same,glycan array binding signal (z-score),[22],-0.185
same,glycan array binding signal (z-score),[23],-0.194
same,glycan array binding signal (z-score),[24],-0.186
same,glycan array binding signal (z-score),[25],-0.187
same,glycan array binding signal (z-score),[26],-0.181
same,glycan array binding signal (z-score),[27],-0.191
same,glycan array binding signal (z-score),[28],-0.183
same,glycan array binding signal (z-score),[29],-0.187
same,glycan array binding signal (z-score),[30],-0.191
